Reference: article PMC4336329 (PLoS ONE, 2015)
The campaign covered roughly 310,000 compounds. About 2,200 (0.71%) showed an effect of 50% or more. Effects have a minus sign here. The list shows a part of the results.

The compounds below were run against human ether-à-go-go-related gene (hERG) potassium channel (human, UniProt Q12809) (assay: primary screen, population patch clamp on CHO cells stably expressing hERG).
Sequence of human ether-à-go-go-related gene (hERG) potassium channel (Q12809 whole entry, looked up): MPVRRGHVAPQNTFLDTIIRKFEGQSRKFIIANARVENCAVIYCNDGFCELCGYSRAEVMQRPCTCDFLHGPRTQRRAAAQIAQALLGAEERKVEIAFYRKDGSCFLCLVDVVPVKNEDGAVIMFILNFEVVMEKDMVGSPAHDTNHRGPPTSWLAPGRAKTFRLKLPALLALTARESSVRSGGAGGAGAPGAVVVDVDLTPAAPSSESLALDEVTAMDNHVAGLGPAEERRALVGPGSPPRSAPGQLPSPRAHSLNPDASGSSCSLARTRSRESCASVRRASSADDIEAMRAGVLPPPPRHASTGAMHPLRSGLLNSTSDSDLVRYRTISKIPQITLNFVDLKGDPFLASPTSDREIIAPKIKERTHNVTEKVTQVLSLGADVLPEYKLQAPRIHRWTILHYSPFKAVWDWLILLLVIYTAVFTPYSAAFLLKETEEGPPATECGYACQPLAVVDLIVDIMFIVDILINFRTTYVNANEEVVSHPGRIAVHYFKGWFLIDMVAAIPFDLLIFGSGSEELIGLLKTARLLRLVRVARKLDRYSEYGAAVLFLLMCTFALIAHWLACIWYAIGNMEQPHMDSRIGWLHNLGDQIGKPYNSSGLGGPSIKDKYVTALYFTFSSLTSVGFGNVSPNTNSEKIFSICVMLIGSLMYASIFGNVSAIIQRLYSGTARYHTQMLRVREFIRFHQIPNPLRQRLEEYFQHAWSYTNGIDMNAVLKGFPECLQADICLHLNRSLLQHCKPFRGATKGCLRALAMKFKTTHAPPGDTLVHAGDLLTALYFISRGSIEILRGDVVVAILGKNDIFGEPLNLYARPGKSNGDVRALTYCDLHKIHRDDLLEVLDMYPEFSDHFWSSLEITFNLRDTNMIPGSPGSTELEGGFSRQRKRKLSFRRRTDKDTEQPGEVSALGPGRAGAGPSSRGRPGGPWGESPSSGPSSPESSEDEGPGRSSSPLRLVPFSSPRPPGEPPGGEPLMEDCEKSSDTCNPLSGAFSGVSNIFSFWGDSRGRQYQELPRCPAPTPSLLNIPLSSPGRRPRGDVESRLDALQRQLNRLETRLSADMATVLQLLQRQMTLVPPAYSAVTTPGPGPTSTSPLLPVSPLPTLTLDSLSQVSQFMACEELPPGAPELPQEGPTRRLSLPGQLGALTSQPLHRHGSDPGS

| Structure (SMILES) | hERG current change (%, negative = inhibition) at 1uM [%] |
| --- | --- |
| Nc1c(Cl)cc(-c2csc(N3CCCC3c3nc4cc(Cl)c(N5CCCCC5)cc4n3CCCO)n2)cc1Cl (stereo not shown) | 12.1 |
| NC(=O)c1ccc(NC(=O)CNC(c2ccccc2)c2ccccc2)cc1 | 7.85 |
| O=C(COC(=O)c1ccco1)Nc1ccc2c(c1)OCCO2 | 13 |
| CCOCCCN(C)C1CCN(C(=O)c2oc3ccccc3c2NC(=O)Cc2ccc(F)cc2)CC1 | -85.2 |
| CC(C)CN(CC(C)C)C(=O)Nc1ccc(F)cc1F | 15.6 |
| Cn1c2ccccc2c(=O)c2c(=O)n(Cc3ccco3)c(-c3ccc(C(C)(C)C)cc3)nc21 | 13.4 |
| COc1ccc(-c2cc(C3CCN(Cc4cccc(C(F)(F)F)c4)CC3)[nH]n2)cc1 | -13 |
| Cc1nc(C(F)(F)F)ccc1C(=O)NN1CCOCC1 | 22.6 |
| COc1ccc(N(C(=O)c2cccnc2)S(=O)(=O)c2ccc(OC)c(OC)c2)cc1 | -15.3 |
| COCCCNC(=O)CS(=O)(=O)Cc1nc(-c2ccccc2C)oc1C | 13.5 |
| COc1cccc2cc(C(=O)NCc3ccc(Cl)cc3)c(=N)oc12 | 14.6 |
| Cc1cccc(OCc2nnc(SCC(=O)N3c4ccccc4Sc4ccc(Cl)cc43)o2)c1 | 2.6 |
| O=C(NCc1ccncc1)c1ccc(S(=O)(=O)Nc2ccccc2)cc1 | -7.64 |
| CC(C)(C)NC(=O)C(=O)NCCC1=CCCCC1 | 9.35 |
| Cc1ccc(C(=O)Nc2ccc3ccccc3c2)cc1 | 11.2 |
| Cc1ccc2[nH]c(C(=O)O)c(NC(=O)c3ccccc3[N+](=O)[O-])c2c1 | -2.15 |
| COc1cccc(NC(=O)Cc2nc(-c3ccccc3)sc2-c2ccc(C)cc2)c1 | 9.07 |
| COc1ccc(C(=N/O)/C(=N/O)c2ccc(OC)cc2)cc1 | 5.44 |
| Cc1ccc(C(=O)c2cc([N+](=O)[O-])ccc2N2CCCCC2)cc1C | 14.8 |
| Cn1c(C(C)(O)C(O)c2ccccc2)nc2ccccc21 (stereo not shown) | -7.82 |
| Cc1ccc2cccc(Oc3nnnn3-c3ccccc3)c2n1 | 17.6 |
| CCCNC(=O)Cn1cc(S(=O)(=O)N2CCCC2)c(S(=O)(=O)N2CCCC2)c1 | 18.9 |
| O=C(CN1C(=O)C2CC=CCC2C1=O)Nc1ccc(F)cc1F (stereo not shown) | 6.22 |
| COc1ccc(-n2nc(C(=O)NCC(=O)NCCCN3CC(C)CC(C)C3)c3ccccc3c2=O)cc1OC (stereo not shown) | -7.45 |
| O=C(C[n+]1cccc2ccccc21)c1ccc(NC(=O)c2ccccc2)cc1.[Br-] | -1.79 |
| C[N+](C)(C)C[C@H](O)CC(=O)O.[Cl-] | 17.5 |
| CCS(=O)(=O)NCc1nnc2n1-c1ccc(Br)cc1C(c1ccccc1Cl)=NC2 | -2.67 |
| COc1ccc(CNc2nc(NCc3ccc(OC)cc3)c3[nH]cnc3n2)cc1 | 15.7 |

| Structure (SMILES) | hERG current change (%, negative = inhibition) at 1uM [%] |
| --- | --- |
| CC1(C)CC(=O)C(C(O)c2ccc([N+](=O)[O-])cc2)C(C)(C)N1 (stereo not shown) | 13.4 |
| Cc1nnc(SCC(=O)NCc2ccco2)[nH]c1=O | -1.58 |
| CC(=O)Nc1ccc(OC(=O)c2ccccc2N)cc1 | -12.7 |
| CC(=O)Oc1ccc(C(=O)Nc2ccccc2C(=O)NCC(C)C)cc1 | 8.85 |
| Cc1ccc(C(=O)N/C(=C\c2ccc(Cl)cc2)C(=O)NCCCN2CCOCC2)cc1 | -78.6 |
| CC(SC1CCCC1)C(=O)NC(C)(C#N)C(C)C (stereo not shown) | 4.93 |
| COC(=O)C(C)n1cnc2c(nnn2-c2ccc(C)cc2)c1=O (stereo not shown) | 2.72 |
| CC(=O)/C(C(=N)N1CCN(Cc2ccccc2)CC1)=C(\C)O | 12.1 |
| CCn1cc(S(=O)(=O)NC2CCCCC2)cn1 | -4.57 |
| O=C(COC(=O)c1cc(S(=O)(=O)N2CCCCC2)ccc1N1CCOCC1)c1ccc(Cl)cc1 | 9.28 |
| Cc1ccc(CNC(=O)CCNC(=O)c2ccco2)cc1 | 10.5 |
| COc1ccc(NC2=C(C)C(=O)CC2)cc1 | 12.9 |
| CCCC(C(=O)N(C)CC(=O)Nc1ccc(N2CCOCC2)cc1)c1ccccc1 (stereo not shown) | -0.231 |
| O=C(COC(=O)c1nc(Cl)ccc1Cl)NC1CCCCCC1 | -4 |
| O=C(c1cc(N2CCCCC2)nc2ccccc12)N1CCOCC1 | 2.08 |
| Cc1cccc(NC(=O)c2ccc([N+](=O)[O-])cc2Cl)n1 | 1.34 |
| Cc1cc2c(cc1C)N(C(=O)CN1C(=O)c3ccccc3C1=O)C(C)(C)c1ssc(=S)c1-2 | 3.55 |
| COc1cccc(-c2cc(C(=O)Nc3cc(C)on3)no2)c1 | 1.21 |
| CC(=O)c1cc2c(cc1N/C(=N/S(=O)(=O)c1ccccc1)c1ccc(Cl)cc1)OCO2 | 0.562 |
| Cc1cc(NC(=O)c2ccc(S(=O)(=O)N3CCc4ccccc43)cc2)no1 | 7.02 |
| COc1ccc(N(CCCN2C(=O)c3cccc4cccc(c34)C2=O)C(=O)c2ccncc2)cc1 | 9.23 |
| CC1(C)OC(=O)N(c2ccccn2)C1(C)O (stereo not shown) | 14.4 |
| CC(c1nccs1)N(C)C(=O)c1ccc(OC2CCN(CCc3ccccc3)CC2)cc1 (stereo not shown) | -23.8 |
| O=C(CN1CCCCC1)Nc1scc2c1c(=O)oc1ccccc12 | 13.3 |
| Oc1ccccc1Nc1nc(-c2ccccc2O)nc2ccccc12 | 11.3 |
| COc1ccc(CNC(=O)CN(C(=O)c2csnn2)c2cccc(F)c2)cc1 | 7.2 |
| CCOC(=O)C(Sc1nnc(-c2ccncc2)o1)C(C)=O (stereo not shown) | 22.1 |
